# According to the RNAGym collection of RNA variant scans (doi:10.1093/nar/gkz1192):
# Read counts are not given, so values of variants with three or more changes are uncertain.
# B1: CPEB3 Ribozyme (parent)
# chain: UAACAGGGGGCCACAGCAGAAGCGUUCACGUCGCAGCCCCUGUCAGAUUCUGGUGAAUCUGCGAAUUCUGCUGUAUAUCUC
# Variants of: B1
# Test: self-cleavage, relative activity (ratio to wild type); higher = more cleavage; in vitro, sequencing
# Summary of the method: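 After error-prone PCR and barcoding, CPEB3 ribozyme mutant libraries were transcribed with T7 RNA polymerase at 37°C for 5 hours, then given 15 min with DNase I before an EDTA stop, and they cleaved during both steps. Reverse transcription with template switching preceded Illumina sequencing. Relative activity divides a variant's cleaved/total read fraction by the unmutated ribozyme's. At least 5 reads were required per variant, and three batches were averaged.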
row,Variant,self-cleavage
1,A2G U48C U72C U76A,0.45
2,A2G A28U U54C U69A,0.15
3,A2G C4U A13U U49A U78C,0.72
4,A2G A15G A28U U67A C68A,0.32
5,A2G G30A A75C,0.36
6,A2G A21G U54C,0.46
7,A2G G6A A13U U25C U26C U41C U60A,0.04
8,A2G A20G U26A A45G,0.42
9,A2G A13U A18G A28G A56G U58G U78C,0.14
10,A2G U69C A75G U80C,0.18
11,A2G A18G U26C G63A U66C U72A U80C,0.05
12,A2G A18U A35G U41C A56G,0.33
13,A2G C14U U49C U51A,0.28
14,A2G U66C U72C U74C,0.16
15,A2G A56C U58C U67C,0.1
16,A2G A18G U48C A57G U78C,0.12
17,A2G A20G G33A A35G U49C A75G,0.34
18,A2G U43A A56U A57G,0.43
19,A2G C32U U41A A64U U72C,0.1
20,A2G C12U U51C U60A,0.31
21,A2G A21U C40A U66C,0.08
22,A2G G6A U51C U67C G73A,0.09
23,A2G U31C A65G,0.36
24,A2G A20G A21U U26A,0.26

row,Variant,self-cleavage
1,A2G A28G A64G,0.39
2,A2G A47G A56G,0.36
3,A2G G55A A56U,0.24
4,A2G G8A U58C G70A U76A,0.03
5,A2G U51C U72A,0.66
6,A2G U41C U49C A77G,0.17
7,A2G A45U U48C U72C,0.28
8,A2G G9U C14U A28G U31C U54C U76C,0.05
9,A2G G10A A18U,0.38
10,A2G A13U U41A A45C U54C U72A,0.06
11,A2G G9A C14U U26A U31A G63A U72C,0.05
12,A2G U26C U43C U78C C81U,0.28
13,A2G G6A A15G U25C A57U A77G,0.05
14,A2G A56G U80C,0.78
15,A2G C11U A28G C79G,0.25
16,A2G G7A A57U A77U,0.37
17,A2G U25C C32U U72C U78C,0.05
18,A2G A56G U72A,0.19
19,A2G A47G U49C A65G,0.5
20,A2G U49C U78C,0.72
21,A2G C29U A35U C37A U48C,0.03
22,A2G A13U C29U A45U,0.19
23,A2G A21G A45U U66C,0.13
24,A2G G7A A18G A65G U67A,0.21

row,Variant,self-cleavage
1,A2G A35G A47G U60A A64U,0.55
2,A2G G6U A15G U41A,0.59
3,A2G A28U U48A,0.22
4,A2G U26C A45G U54C U74A,0.56
5,A2G G24A U43A A57U U80C,0.34
6,A2G G9C U48C A57G U67C U78C,0.04
7,A2G G10A C29U U54C U67C,0.05
8,A2G U25G C39G A56G,0.07
9,A2G A28G A75U,0.71
10,A2G C4U A5G,0.8
11,A2G G9A U41C U72A,0.54
12,A2G A21G G63U U78C,0.29
13,A2G C23A A28U U43C A56G U76C,0.07
14,A2G U41A A47G C59A,0.14
15,A2G A45U U54C A56U,0.09
16,A2G G8A A20G A35U G52U A56U U76C,0.12
17,A2G C4U A18G U26C U41C,0.14
18,A2G C11G A20G U41G U43C,0.05
19,A2G G22U A35U U49C U51A G53U U60C,0.1
20,A2G U60C A65G,0.15
21,A2G A21G A28G C32A U41C U54C U74C,0
22,A2G G6A C40U C44G U48C U80C,0.08
23,A2G C4U U25C U26C A28U A35U,0.13
24,A2G G8A A18G A21G U67C,0.08

row,Variant,self-cleavage
1,A2G U41C U54A A56G U60G A64G,0.14
2,A2G U51C U72G U78C,0.52
3,A2G C14U U48C A65G,0.16
4,A2G G8U A15G A18G A64G A75G,0.06
5,A2G C11A U41C A57G,0.37
6,A2G A18C U76C,0.15
7,A2G A15U U76C,0.31
8,A2G U31G C50A U72C,0.58
9,A2G A35U U49A A56U U60C A75U U76C,0.09
10,A2U A5G A15U U43C A64U,0.11
11,A2G U54C U80C,0.97
12,A2G A20G C29U U43C U58C,0.47
13,A2G C40A U48A,0.31
14,A2G C40G G73A,0.48
15,A2G A18G U25A U43A U76C,0.06
16,A2G U31C A45G U72A C79G,0.23
17,A2G C4U G10U U31G U51A A56U,0.11
18,A2G U25C U26C C29U U80G,0.21
19,A2G G16U C23U U60C,0.19
20,A2G C37A U51A A57G U69A,0.12
21,A2G C39G A47G,0.12
22,A2G U41G U49C U54C,0.29
23,A2G U67A U74A,0.31
24,A2G U41A U43A G70A,0.44

row,Variant,self-cleavage
1,A2G A21G U25A U74C,0.54
2,A2G A18G A21G U41A U48C U60G U72C,0
3,A2G A18G U26C U43C U49C U74C U78C,0
4,A2G A13U U49A U66C,0.23
5,A2G A21G U25C U26C U72C U78A,0.14
6,A2G U41A A75G,0.29
7,A2G C12U U43C,0.86
8,A2G U58C U60A,0
9,A2G C12U A21U U41A U43C A57C,0.18
10,A2G A35U C40U U58C U69A,0.05
11,A2G G8A A13G U26A,0.44
12,A2U A3U C12A U25C U41A A75U,0.11
13,A2G G10C C17G U25C U31A A45G,0.08
14,A2G A47G U48A U60A U80A,0.33
15,A2G A18U U58A U67C,0.12
16,A2G G36C U74A,0.4
17,A2G G9U A18G,0.08
18,A2G A18G U69A U78A,0.09
19,A2G A18U A28G A35G U49A A65G U80C,0.06
20,A2G A21G U25C A64G,0.35
21,A2G A18U U80C,0.54
22,A2G U43C A56C C62G,0.26
23,A2G U41C A47G,0.45
24,A2G U26C A45G U69G,0.26

row,Variant,self-cleavage
1,A2G A64U U67C,0.16
2,A2G U31C C39U U72A,0.13
3,A2G A20G A56U A77G,0.15
4,A2G G10A A20G U26C U69A U78C,0.06
5,A2G U26A G36U U76C A77G,0.13
6,A2G G6A C29U U51A,0.07
7,A2G U25A U26C C37A U60C,0.12
8,A2G A20U A56G U66C U76C U80A,0.09
9,A2G C4U A20U,0.31
10,A2G A56G U69C A77U,0.21
11,A2G U25C U48A,0.34
12,A2G A20G A45U A56U C62U U74A,0.14
13,A2G C27U A35U U48C U69A,0.15
14,A2G A35G U60C,0.32
15,A2G A13U A28G U43C C62U U72C,0.08
16,A2G G6A U41G U69C G73A,0.42
17,A2G A15G A45G U69C U78C,0.38
18,A2G U41A U69C,0.05
19,A2G A18G U31C,0.08
20,A2U A3G G10A A35G U74C,1.22
21,A2G C11G A20G,0.35
22,A2G A28U U69A A77G U80C,0.18
23,A2G G6A U31A G63A G73U,0.07
24,A2G A15U A20U A64G U67G,0.03

row,Variant,self-cleavage
1,A2G G9A C14U G16A U41C U80C,0.08
2,A2G U31C U41G A45G U51A C59U,0.09
3,A2G C23U A35G A45C A57G U66C,0.05
4,A2G U26C G33U,0.26
5,A2G U26A C68A G70U U74C U76A,0.22
6,A2G G8A C12U A21G A65G,0.05
7,A2G U51A C62U,0.24
8,A2U A5G U43G U49A A57G U67A,0.43
9,A2G G19U A47G,0.59
10,A2G A21G A35U C37G U67C,0.55
11,A2G G52A A56U U60C,0.09
12,A2G A56U A64G C79U,0.1
13,A2G A28U U60C A65G U72G A75G,0.07
14,A2G G7A U41C A47G A56G,0.43
15,A2G U31C C59A U66C,0.24
16,A2G C17U U48C U76C,0.11
17,A2G C39A U49C U54G A64G,0.15
18,A2G A15G U26C G33A,0.38
19,A2G U25A A28U U69C U74A,0.13
20,A2G A35C U43C A47U A56G,0.07
21,A2G A15U U31C A45G,0.06
22,A2G U25C U49A,0.1
23,A2G U25A U31C U49C U58A U74G,0.05
